This test has as its system NCI-H322M lung. Description: DTP human tumour cell line panel, 48 h.

This is an account of results in PubChem BioAssay (NCI).

The TGI is the concentration giving total growth inhibition. As a reminder, the GI50 is the concentration at which growth is held to half of that of the control.

Several values for one entry are separate records, joined by “and”; a condition that tells them apart may be missing. Equal entries are not always repeated.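 48-hour exposure; five concentrations; linearly interpolated endpoints. At the GI50, growth is halved. TGI is the concentration that stops growth completely.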 A value given as a limit tells only on which side of the number the result lay.

Take `Oc1cccnc1CN1CCCCC1`: the total growth inhibition concentration (TGI) is > 100 µM.

As to `CC1(C)C(=O)N(CCCCCCN2C(=O)C(C)(C)c3ccccc32)c2ccccc21`, the TGI was > 100 µM.

Consider `COc1cc(C(=O)N(Cc2cccnc2)C(=S)N(Cc2cccnc2)C(=O)c2cc(OC)c(OC)c(OC)c2)cc(OC)c1OC`, for which the TGI was > 100 µM.

Consider `CC1=NNC(N)=N/C1=C\C(Sc1ccc(Cl)cc1)c1ccc([N+](=O)[O-])cc1` (stereo not given), for which the total growth inhibition concentration (TGI) was > 100 µM.

In the case of `CCOC(=O)C(=Cc1[nH]c2ccccc2c1-c1c[nH]c2ccccc12)C(=O)OCC`, the TGI amounted to 30.8 µM.

Consider `CC(C)=CCC/C(C)=C/C=C/C(C)=C/C=C/C(C)=C/C=C/C=C(C)/C=C/C=C(C)/C=C/[C@H]1C(C(C)(C)O)CC[C@]1(C)O` (stereo not given in full), for which the TGI was > 100 µM.

Consider `O=C(Cc1ccccc1)NN1C(=O)C(Cl)C1c1cc(Br)ccc1O` (stereo not given), for which the TGI was > 100 µM.

With `Cc1nc(-c2cc3cc([N+](=O)[O-])ccc3oc2=O)cs1`, the TGI is > 100 µM.

Turning to `O=Cc1ccc2c(c1)CC1(Cc3ccccc3C1)C2`, the TGI is > 100 µM.

As for `O=P(Nc1ccc(Cl)cc1)(Oc1ccccc1)N(CCCl)CCCl` (stereo not given), the TGI was > 100 µM.

On to `O=C1C=C(C2=CC(=O)C(=O)c3ccccc32)c2ccccc2C1=O`, for which the TGI is > 100 µM.

With `CCOC(=O)[C@@H](N)CCC(=O)N[C@@H](CSCc1ccccc1)C(=O)N[C@@H](C(=O)OCC)c1ccccc1`, the GI50 is 29.6 µM and the total growth inhibition concentration (TGI) was > 62.6 µM.

As for `COc1cc2c(cc1OC)C(CC(=O)NN=C(C)C)NCC2` (stereo not given), the TGI is > 100 µM.

`CCOCc1nc2c(OC)cc(-c3nc4ccc(N5CCN(C)CC5)cc4[nH]3)c(OC)c2[nH]1`: the TGI is > 100 µM.

`COc1cccc2c1C(=O)c1c(O)c3c(c(O)c1C2=O)C[C@@](O)(C(C)=O)C[C@@H]3OC1OC(C)C(O)C(N)C1Br` (stereo not given in full) returned a total growth inhibition concentration (TGI) of 1.25 µM.

For `C=C1C(=O)O[C@@H]2/C=C(\C)CC/C=C(/COC(C)=O)C[C@@H](OC(C)=O)[C@@H]12`, the TGI is > 100 µM.

For the compound `CN1C/C=C\CCOc2cccc(c2)-c2ccnc(n2)Nc2cccc(c2)C1`, the GI50 is 0.0588 µM and the total growth inhibition concentration (TGI) came to 2.4 µM.

For `CCOC(=O)CC1(C(=O)OCC)c2[nH]c3ccccc3c2CCN1Cc1ccccc1` (stereo not given), the TGI is > 100 µM.

Regarding `COc1cccc(-c2ccc3c4c2O[C@H]2C(=O)CC[C@@]5(O)[C@@H](C3)N(CC3CC3)CC[C@]425)c1`, the concentration for total growth inhibition (TGI) was 37.6 µM.

The compound `N#CC(NNC(=O)Cc1ccccc1)c1c(O)ccc2ccccc12` (stereo not given) came in with a concentration for total growth inhibition (TGI) of 82.5 µM.

For the compound `CC(C)(C)c1cc(C(C)(C)C)cc(S(=O)(=O)Nc2cc3ccccc3cc2C(=O)NCCN)c1`, the GI50 was 1.89 µM and the TGI was determined as 3.62 µM.

Take `Cc1ccc(-c2c(C#N)c(-c3ccc(Cl)cc3)c(C#N)c(=O)n2NS(=O)(=O)c2ccc(C)cc2)cc1`: the TGI was > 100 µM.

`O=C1CSC(c2cccc(Oc3ccccc3)c2)N1c1ccc(Cl)cc1` (stereo not given): the TGI is > 100 µM.

In the case of `NC(N)=N/N=C(\c1nc2ccc([N+](=O)[O-])cc2[nH]c1=O)C(O)c1ccc([N+](=O)[O-])cc1` (stereo not given), the total growth inhibition concentration (TGI) is > 100 µM.

As to `CC1(C)SCc2nc3ncccc3n21`, the TGI is > 100 µM.

Turning to `COc1ccc(Nc2c3ccccc3nc3occc23)cc1`, the GI50 is 4.69 µM and the TGI was found to be 20.4 µM.

`NC(N)=NCCC[C@H](N)C(=O)NCC(=O)N[C@@H](CC(=O)O)c1ncc(NC(=O)C(F)(F)F)o1`: the TGI was > 25 µM.

Turning to `O=C1OC(C(O)CO)C(=O)C1=O` (stereo not given), the GI50 was 2110 µM and the TGI was 7200 µM.

`COc1ccc2ccccc2c1/C=C/C(=O)c1ccccc1` showed a total growth inhibition concentration (TGI) of 12.8 µM.

Take `CN(C)C(=O)c1cc2cnc(Nc3ccc(-c4csc5c(=S)cc(N6CCOCC6)oc45)cc3)nc2n1C1CCCC1`: the GI50 was 0.55 µM and the concentration for total growth inhibition (TGI) is > 50 µM.

Consider `C=CCCN1CCc2c([nH]c3ccccc23)C1C(=O)O` (stereo not given), for which the TGI was > 100 µM.

Consider `N#CC(NC12CC3CC(CC(C3)C1)C2)c1ccccc1C(F)(F)F` (stereo not given), for which the concentration for total growth inhibition (TGI) was > 100 µM.

Turning to `COc1ccc(/C=C/c2ccnc3ccccc23)c(OC)c1`, the TGI was > 10 µM.

For `CC(=O)OC(/C=C/c1ccccc1)=C(OC(C)C)/C1=C(\c2ccccc2)SCCCSC1=O`, the TGI was > 100 µM.

For `COc1ccc(C(=C(Cl)c2ccccc2)c2ccc(OC)cc2)cc1`, the TGI is > 100 µM.

`COC1=CC(=O)c2nc(-c3cccc(C)n3)[nH]c2C1=O`: the GI50 is 20 µM and the TGI is 46.1 µM.

For `COC1(OC)C2(Cl)C(Cl)=C(Cl)C1(Cl)C1C=CC=CC12` (stereo not given), the concentration for total growth inhibition (TGI) was > 100 µM.

Regarding `COc1cc(/C=C/c2cc(/C=C/c3ccc(O)c(OC)c3)n(C(=O)Nc3ccc(F)c(Cl)c3)n2)ccc1O`, the GI50 is 0.555 µM and the total growth inhibition concentration (TGI) amounted to 5.8 µM.

Consider `COc1cc2ncnc(Nc3ccc(C)c(O)c3)c2cc1OC`, for which the GI50 was 1.35 µM and the total growth inhibition concentration (TGI) was > 18.9 µM.

For `Cc1ccc(C2=C(c3ccccc3)C(Br)(c3ccc(C)cc3)C(c3ccccc3)=C2c2ccc(C)cc2)cc1`, the TGI is > 100 µM.

As to `O=C(NC1=CC(=O)c2ccccc2C1=O)c1ccccc1`, the GI50 is 4.22 µM and the total growth inhibition concentration (TGI) was 16.6 µM.

With `CSc1ncnc2c1ncn2C1CC(Oc2ccc(C)cc2)C(COc2ccc(C)cc2)O1` (stereo not given), the total growth inhibition concentration (TGI) is > 100 µM.

On to `COc1ccccc1CNCCCN1C(=O)c2ccc3c4c(ccc(c24)C1=O)C(=O)N(CCCOCCCCOCCCN)C3=O`, for which the GI50 is 1.89 µM and the total growth inhibition concentration (TGI) came out at 4.68 µM.

Consider `O=C(N/N=C/c1ccccc1)c1c(-c2cccnc2)cnc2ccccc12`, for which the TGI was > 100 µM.

`O=C(O)c1ccc([N+](=O)[O-])c2cc3cnccc3nc12`: the total growth inhibition concentration (TGI) was > 100 µM.

Consider `COc1cc2c(c(OC)c1OC)-c1ccc(OC)c(=O)cc1[C@@H](NC(=O)c1ccccc1)CC2`, for which the GI50 was > 30 µM; the concentration for total growth inhibition (TGI) is > 30 µM and 14.8 µM.

In the case of `Cc1ccn2c(c1)nc1nc3ccccc3nc12`, the TGI is > 100 µM.

As to `C[C@@H]1CC(=O)C2CCCC1C2=O` (stereo not given in full), the TGI was > 100 µM.

Consider `CCOC(=O)CNc1c(OCc2ccccc2)c(=O)c1=O`, for which the TGI is > 100 µM.

As to `CC(C)[Si](OC1=C(C(=O)N(C)c2cccc(Cl)c2)CCCC1)(C(C)C)C(C)C`, the total growth inhibition concentration (TGI) was 29.3 µM.

Turning to `Oc1ccccc1C(Sc1nc2ccccc2s1)Sc1nc2ccccc2s1`, the total growth inhibition concentration (TGI) was > 100 µM.

For the compound `Cc1cccc(NC(=O)/C(=N\NC(C)(C)C)C2NC(=S)NC2=O)c1C` (stereo not given), the total growth inhibition concentration (TGI) is > 100 µM.

As for `O=C(c1ccc(N=Cc2ccccc2O)cc1)c1ccc(N=Cc2ccccc2O)cc1`, the total growth inhibition concentration (TGI) was > 100 µM.

As for `C[N+](C)(C)CC1CCCCCCCCCCC1=O` (stereo not given), the TGI was > 100 µM.

`COc1cc(C(C)O)c[n+](CCc2c[nH]c3ccccc23)c1` (stereo not given): the TGI was > 100 µM.

In the case of `Nn1c(=O)n(Cc2ccccc2)n(-c2ccccc2)c1=O`, the TGI was > 100 µM.

`N=C1C(c2nc3ccccc3s2)=C(O)CN1c1cc(C(F)(F)F)ccc1Cl`: the GI50 is 47.2 µM and the concentration for total growth inhibition (TGI) was > 100 µM.

As to `O=C1/C(=N/O)Cc2c(Br)ccc(Br)c21`, the concentration for total growth inhibition (TGI) is > 100 µM.

As to `O=C(NNC(=S)Nc1cccc(Cl)c1)c1cc(-c2ccccc2)nc2ccccc12`, the TGI worked out at 28.3 µM.

On to `CN1CCC(O)(C(C)(C)C)CC1`, for which the TGI is > 100 µM.

For the compound `CCCCC(O)(c1ccc(Cl)cc1)C(CN1CCOCC1)c1ccc(Cl)cc1` (stereo not given), the GI50 was 19.4 µM and the concentration for total growth inhibition (TGI) was 44.8 µM.

In the case of `CC12C(=O)CC(CC1=O)C2(C)C`, the TGI is > 100 µM.

Consider `CCOP(C)(=O)C(N)Cc1ccc(OC)c(OC)c1` (stereo not given), for which the TGI is > 100 µM.

On to `C[C@]12CCC(=O)O[C@H]1CCCCO2`, for which the TGI is > 100 µM.

Consider `C1=CC2SSSC2C1` (stereo not given), for which the TGI was > 100 µM.

In the case of `COc1cc(CNCc2cc(OC)c(OC)c(OC)c2)cc(OC)c1OC`, the TGI is > 10 µM.

For `CCOc1cn(C2CC(O)C(CO)O2)c(=O)[nH]c1=O` (stereo not given), the concentration for total growth inhibition (TGI) was > 100 µM.

Take `CC(C)(C)c1ccc2c(c1)S(=O)(=O)Nc1ccccc1NS(=O)(=O)c1cc(C(C)(C)C)ccc1OCCOCCOCCO2`: the TGI was > 100 µM.

On to `C=C1C(=O)O[C@H]2[C@H]1CC/C(COC(=O)C(=O)c1cn(Cc3ccccc3)c3ccccc13)=C\CC[C@@]1(C)O[C@@H]21`, for which the GI50 is 7.4 µM and the total growth inhibition concentration (TGI) amounted to 20.6 µM.

`Cn1c2c(c3ccccc31)CC1c3c(c4ccccc4n3C)CC21` (stereo not given): the concentration for total growth inhibition (TGI) is > 100 µM.

In turn, `Clc1nc(Cl)c(Cl)c(-c2ccccc2)n1` had a TGI of 33.7 µM.

For `Cc1cccc(NC(=O)C(=O)C(C(=O)c2ccc3ccccc3c2)C2OC(=O)c3ccccc32)c1C` (stereo not given), the TGI is 41.3 µM.

On to `Nc1cc2[nH]c(=O)c(=O)[nH]c2cc1N`, for which the TGI was > 100 µM.

Regarding `O=C1/C(=C/c2ccc([N+](=O)[O-])cc2)C(=O)N(c2ccccc2)C1c1ccccc1` (stereo not given), the TGI was > 10 µM.

In the case of `Cn1c(=O)c(C(c2ccc([N+](=O)[O-])cc2)c2c(O)c3ccccc3n(C)c2=O)cc2ccccc21` (stereo not given), the total growth inhibition concentration (TGI) was > 100 µM.

With `O=C(O)Cc1cccc2c(=O)c3ccccc3oc12`, the TGI was > 100 µM.

For the compound `O=C1C=CC[C@H]2O[C@@H](COC(=O)Cc3ccccc3)C[C@H]2O1`, the concentration for total growth inhibition (TGI) is > 100 µM.

For the compound `COC1=C(C)C(=O)c2c(c(COC(N)=O)c3n2CC2C3N2C)C1=O` (stereo not given), the TGI is 0.391 µM.

Turning to `Cc1cc(S(=O)(=O)N=C2N(Cc3ccccc3)CCN2Cc2ccccc2)c(S)cc1Cl`, the total growth inhibition concentration (TGI) is > 100 µM.

With `CC1NC(=O)CC(c2ccccc2)N(N=O)C1c1ccccc1` (stereo not given), the concentration for total growth inhibition (TGI) is > 100 µM.

As to `O=Cc1ccc(OCc2cccc(COc3ccc(/C=N\Nc4ccc([N+](=O)[O-])cc4[N+](=O)[O-])cc3)n2)cc1`, the TGI was > 100 µM.

As for `C=CC(CCc1ccc(C(=O)OCC)cc1)c1c(N)nc(N)[nH]c1=O` (stereo not given), the TGI is > 100 µM.

In the case of `NC(Cc1ccccc1)C(=O)N[C@H]1c2ccsc2/C(=N/O)[C@H]1O` (stereo not given in full), the TGI was > 100 µM.

Take `Cc1ccc2c(c1)C(C(=O)N[C@@H]1C(=O)N3[C@@H]1SC(C)(C)[C@@H]3C(=O)O)OCCC2` (stereo not given in full): the TGI was > 100 µM.

Consider `CSc1ccc2c(cc1=O)[C@@H](NC(=O)c1ccc(N)cc1)CCc1cc(O)c(O)c(O)c1-2`, for which the GI50 was 73 µM and 16.5 µM; the total growth inhibition concentration (TGI) is > 100 µM.

As to `CN1c2ccc(Cl)cc2C(=O)NC1c1ccc([N+](=O)[O-])s1` (stereo not given), the TGI stood at 65.2 µM.

`COC1C=CC(O)C(CO)O1` (stereo not given): the total growth inhibition concentration (TGI) was > 100 µM.

Turning to `CCOC(=O)c1nc2ccc(C(F)(F)F)cc2nc1NCc1cc(OC)c(OC)c(OC)c1`, the total growth inhibition concentration (TGI) was > 100 µM.

As for `CCN(CC)C(=S)N/N=C(/C)c1cccc(/C(C)=N\NC(=S)N(CC)CC)n1`, the TGI worked out at 3.63 µM.
